± gives the standard deviation of the averaged measurements. Growth of baker's yeast expressing single-residue variants of Pneumocystis jirovecii dihydrofolate reductase in 8.8 or 44 µM methotrexate (about 75% and 90% inhibition of the wild type). Selection coefficient per generation; 0 = like wild type, above 0 = less sensitive, below 0 = more sensitive or loss of function. No active / inactive call per row; the paper calls resistant above 0.220 (8.8 µM) or 0.243 (44 µM) together with a significance test. At 44 µM about 15% of codons end with one read or none, so the lowest values are floors (replicate rank correlation 0.74; 0.94 at 8.8 µM).
B1: UniProt A0EPZ9; numbered along this chain (parent)
chain: MDWQKSLTLIVALTLSRGIGLKNDLPWKLKSDMMFFSRVTSGLLVTRSTGQMNVVLMGRKTWESLPAHSRPLKNRINVVISRQEVLDLGGGAYHARSLDDALALLSQIYDSTSKIQLNRVFVIGGGELCKAAMEHSRLNRIIATVIHNEVDCDVFFPIDFRSSQSCLPWRKQDHSVLEAWVGSKVPQGKINENGFIYEFEMWIRDI

Variants of: B1
Test: selection coefficient against synonymous wild-type codons (log2 per generation); higher = faster growth than wild type
Conditions: with Saccharomyces cerevisiae carrying the variant on a plasmid
Method: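 Pooled growth of yeast carrying single-residue variants of P. jirovecii dihydrofolate reductase (own DFR1 gene intact), two passages at 30 °C, three cultures, sequenced before and after. Codons with under 15 starting reads are left out; codons of one change are averaged.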

## MDWQKSLTLIVALTLSRGIGLKNDLPWKLKSDMMFFSRVTSGLLVTRSTGQMNVVLMGRKTWESLPAHSRPLKNRINVVISRQEVLDLGGGAYHARSLDDALALLSQIYDSTSKIQLNRVFVIGGGELCKAAMEHSRLNRIIATVIHNEVDCDVFFPIDFRSSQSCLPVRKQDHSVLEAWVGSKVPQGKINENGFIYEFEMWIRDI [W169V]
Methotrexate 8.8 µM
  selection coefficient against synonymous wild-type codons (log2): -0.189 ± 0.072
Methotrexate 44 µM
  selection coefficient against synonymous wild-type codons (log2): -0.185 ± 0.1

## MDWQKSLTLIVALTLSRGIGLKNDLPWKLKSDMMFFSRVTSGLLVTRSTGQMNVVLMGRKTWESLPAHSRPLKNRINVVISRQEVLDLGGGAYHARSLDDALALLSQIYDSTSKIQLNRVFVIGGGELCKAAMEHSRLNRIIATVIHNEVDCDVFFPIDFRSSQSCLPYRKQDHSVLEAWVGSKVPQGKINENGFIYEFEMWIRDI [W169Y]
Methotrexate 8.8 µM
  selection coefficient against synonymous wild-type codons (log2): -0.112 ± 0.044
Methotrexate 44 µM
  selection coefficient against synonymous wild-type codons (log2): -0.211 ± 0.047

## MDWQKSLTLIVALTLSRGIGLKNDLPWKLKSDMMFFSRVTSGLLVTRSTGQMNVVLMGRKTWESLPAHSRPLKNRINVVISRQEVLDLGGGAYHARSLDDALALLSQIYDSTSKIQLNRVFVIGGGELCKAAMEHSRLNRIIATVIHNEVDCDVFFPIDFRSSQSCLPWAKQDHSVLEAWVGSKVPQGKINENGFIYEFEMWIRDI [R170A]
Methotrexate 8.8 µM
  selection coefficient against synonymous wild-type codons (log2): 0.00134 ± 0.069
Methotrexate 44 µM
  selection coefficient against synonymous wild-type codons (log2): -0.0736 ± 0.15

## MDWQKSLTLIVALTLSRGIGLKNDLPWKLKSDMMFFSRVTSGLLVTRSTGQMNVVLMGRKTWESLPAHSRPLKNRINVVISRQEVLDLGGGAYHARSLDDALALLSQIYDSTSKIQLNRVFVIGGGELCKAAMEHSRLNRIIATVIHNEVDCDVFFPIDFRSSQSCLPWCKQDHSVLEAWVGSKVPQGKINENGFIYEFEMWIRDI [R170C]
Methotrexate 8.8 µM
  selection coefficient against synonymous wild-type codons (log2): -0.0796 ± 0.036
Methotrexate 44 µM
  selection coefficient against synonymous wild-type codons (log2): -0.0767 ± 0.18

## MDWQKSLTLIVALTLSRGIGLKNDLPWKLKSDMMFFSRVTSGLLVTRSTGQMNVVLMGRKTWESLPAHSRPLKNRINVVISRQEVLDLGGGAYHARSLDDALALLSQIYDSTSKIQLNRVFVIGGGELCKAAMEHSRLNRIIATVIHNEVDCDVFFPIDFRSSQSCLPWDKQDHSVLEAWVGSKVPQGKINENGFIYEFEMWIRDI [R170D]
Methotrexate 8.8 µM
  selection coefficient against synonymous wild-type codons (log2): -0.0208 ± 0.076
Methotrexate 44 µM
  selection coefficient against synonymous wild-type codons (log2): -0.0546 ± 0.06

## MDWQKSLTLIVALTLSRGIGLKNDLPWKLKSDMMFFSRVTSGLLVTRSTGQMNVVLMGRKTWESLPAHSRPLKNRINVVISRQEVLDLGGGAYHARSLDDALALLSQIYDSTSKIQLNRVFVIGGGELCKAAMEHSRLNRIIATVIHNEVDCDVFFPIDFRSSQSCLPWEKQDHSVLEAWVGSKVPQGKINENGFIYEFEMWIRDI [R170E]
Methotrexate 8.8 µM
  selection coefficient against synonymous wild-type codons (log2): 0.0562 ± 0.043
Methotrexate 44 µM
  selection coefficient against synonymous wild-type codons (log2): -0.0961 ± 0.071

## MDWQKSLTLIVALTLSRGIGLKNDLPWKLKSDMMFFSRVTSGLLVTRSTGQMNVVLMGRKTWESLPAHSRPLKNRINVVISRQEVLDLGGGAYHARSLDDALALLSQIYDSTSKIQLNRVFVIGGGELCKAAMEHSRLNRIIATVIHNEVDCDVFFPIDFRSSQSCLPWFKQDHSVLEAWVGSKVPQGKINENGFIYEFEMWIRDI [R170F]
Methotrexate 8.8 µM
  selection coefficient against synonymous wild-type codons (log2): -0.13 ± 0.064
Methotrexate 44 µM
  selection coefficient against synonymous wild-type codons (log2): -0.125 ± 0.16

## MDWQKSLTLIVALTLSRGIGLKNDLPWKLKSDMMFFSRVTSGLLVTRSTGQMNVVLMGRKTWESLPAHSRPLKNRINVVISRQEVLDLGGGAYHARSLDDALALLSQIYDSTSKIQLNRVFVIGGGELCKAAMEHSRLNRIIATVIHNEVDCDVFFPIDFRSSQSCLPWGKQDHSVLEAWVGSKVPQGKINENGFIYEFEMWIRDI [R170G]
Methotrexate 8.8 µM
  selection coefficient against synonymous wild-type codons (log2): -0.0604 ± 0.054
Methotrexate 44 µM
  selection coefficient against synonymous wild-type codons (log2): -0.0702 ± 0.1

## MDWQKSLTLIVALTLSRGIGLKNDLPWKLKSDMMFFSRVTSGLLVTRSTGQMNVVLMGRKTWESLPAHSRPLKNRINVVISRQEVLDLGGGAYHARSLDDALALLSQIYDSTSKIQLNRVFVIGGGELCKAAMEHSRLNRIIATVIHNEVDCDVFFPIDFRSSQSCLPWHKQDHSVLEAWVGSKVPQGKINENGFIYEFEMWIRDI [R170H]
Methotrexate 8.8 µM
  selection coefficient against synonymous wild-type codons (log2): -0.0186 ± 0.052
Methotrexate 44 µM
  selection coefficient against synonymous wild-type codons (log2): -0.0684 ± 0.054

## MDWQKSLTLIVALTLSRGIGLKNDLPWKLKSDMMFFSRVTSGLLVTRSTGQMNVVLMGRKTWESLPAHSRPLKNRINVVISRQEVLDLGGGAYHARSLDDALALLSQIYDSTSKIQLNRVFVIGGGELCKAAMEHSRLNRIIATVIHNEVDCDVFFPIDFRSSQSCLPWIKQDHSVLEAWVGSKVPQGKINENGFIYEFEMWIRDI [R170I]
Methotrexate 8.8 µM
  selection coefficient against synonymous wild-type codons (log2): -0.0249 ± 0.053
Methotrexate 44 µM
  selection coefficient against synonymous wild-type codons (log2): -0.161 ± 0.28

## MDWQKSLTLIVALTLSRGIGLKNDLPWKLKSDMMFFSRVTSGLLVTRSTGQMNVVLMGRKTWESLPAHSRPLKNRINVVISRQEVLDLGGGAYHARSLDDALALLSQIYDSTSKIQLNRVFVIGGGELCKAAMEHSRLNRIIATVIHNEVDCDVFFPIDFRSSQSCLPWKKQDHSVLEAWVGSKVPQGKINENGFIYEFEMWIRDI [R170K]
Methotrexate 8.8 µM
  selection coefficient against synonymous wild-type codons (log2): 0.0894 ± 0.013
Methotrexate 44 µM
  selection coefficient against synonymous wild-type codons (log2): 0.0127 ± 0.074

## MDWQKSLTLIVALTLSRGIGLKNDLPWKLKSDMMFFSRVTSGLLVTRSTGQMNVVLMGRKTWESLPAHSRPLKNRINVVISRQEVLDLGGGAYHARSLDDALALLSQIYDSTSKIQLNRVFVIGGGELCKAAMEHSRLNRIIATVIHNEVDCDVFFPIDFRSSQSCLPWLKQDHSVLEAWVGSKVPQGKINENGFIYEFEMWIRDI [R170L]
Methotrexate 8.8 µM
  selection coefficient against synonymous wild-type codons (log2): -0.0476 ± 0.035
Methotrexate 44 µM
  selection coefficient against synonymous wild-type codons (log2): -0.157 ± 0.13

## MDWQKSLTLIVALTLSRGIGLKNDLPWKLKSDMMFFSRVTSGLLVTRSTGQMNVVLMGRKTWESLPAHSRPLKNRINVVISRQEVLDLGGGAYHARSLDDALALLSQIYDSTSKIQLNRVFVIGGGELCKAAMEHSRLNRIIATVIHNEVDCDVFFPIDFRSSQSCLPWMKQDHSVLEAWVGSKVPQGKINENGFIYEFEMWIRDI [R170M]
Methotrexate 8.8 µM
  selection coefficient against synonymous wild-type codons (log2): -0.0325 ± 0.065
Methotrexate 44 µM
  selection coefficient against synonymous wild-type codons (log2): -0.0898 ± 0.027

## MDWQKSLTLIVALTLSRGIGLKNDLPWKLKSDMMFFSRVTSGLLVTRSTGQMNVVLMGRKTWESLPAHSRPLKNRINVVISRQEVLDLGGGAYHARSLDDALALLSQIYDSTSKIQLNRVFVIGGGELCKAAMEHSRLNRIIATVIHNEVDCDVFFPIDFRSSQSCLPWNKQDHSVLEAWVGSKVPQGKINENGFIYEFEMWIRDI [R170N]
Methotrexate 8.8 µM
  selection coefficient against synonymous wild-type codons (log2): -0.00974 ± 0.0091
Methotrexate 44 µM
  selection coefficient against synonymous wild-type codons (log2): 0.00281 ± 0.012

## MDWQKSLTLIVALTLSRGIGLKNDLPWKLKSDMMFFSRVTSGLLVTRSTGQMNVVLMGRKTWESLPAHSRPLKNRINVVISRQEVLDLGGGAYHARSLDDALALLSQIYDSTSKIQLNRVFVIGGGELCKAAMEHSRLNRIIATVIHNEVDCDVFFPIDFRSSQSCLPWPKQDHSVLEAWVGSKVPQGKINENGFIYEFEMWIRDI [R170P]
Methotrexate 8.8 µM
  selection coefficient against synonymous wild-type codons (log2): -0.504 ± 0.15
Methotrexate 44 µM
  selection coefficient against synonymous wild-type codons (log2): -0.235 ± 0.12
